Results published in paper PMC5612949.
These are yes or no findings as the source states them, for the method shown. For part of these data: In cells and extracts the contact can be indirect. Some entries that bind do so weakly or less than the wild type. For part of these data: Where a sequence is shown, tags or fusion partners need not be part of it.

Sequences of proteins named here, by UniProt entry; tags and fusion partners are left off.
UniProt Q9UKL0: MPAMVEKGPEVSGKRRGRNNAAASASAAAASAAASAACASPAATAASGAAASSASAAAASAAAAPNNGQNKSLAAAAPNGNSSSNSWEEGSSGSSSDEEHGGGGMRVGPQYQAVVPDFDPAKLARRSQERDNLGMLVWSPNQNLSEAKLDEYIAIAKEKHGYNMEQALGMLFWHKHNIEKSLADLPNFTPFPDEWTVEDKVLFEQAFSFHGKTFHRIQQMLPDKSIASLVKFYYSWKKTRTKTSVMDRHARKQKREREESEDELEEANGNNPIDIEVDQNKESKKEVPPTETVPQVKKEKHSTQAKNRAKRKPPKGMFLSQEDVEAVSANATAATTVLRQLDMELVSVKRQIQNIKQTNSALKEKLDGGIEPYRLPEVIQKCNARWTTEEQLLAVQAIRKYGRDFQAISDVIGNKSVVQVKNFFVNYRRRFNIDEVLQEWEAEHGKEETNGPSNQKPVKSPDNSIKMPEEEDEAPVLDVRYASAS

How the values were obtained:
[1] = biological target: T1, FLAG-tagged ZNF516 (Zinc-finger protein 516) (human) (UniProt Q92618); assay: SEC; anti-FLAG affinity eluate from HEK293T stably expressing FLAG-ZNF516, concentrated and run on Superose 6 in PBS, fractions analysed by silver staining and western blot
T1 sequence: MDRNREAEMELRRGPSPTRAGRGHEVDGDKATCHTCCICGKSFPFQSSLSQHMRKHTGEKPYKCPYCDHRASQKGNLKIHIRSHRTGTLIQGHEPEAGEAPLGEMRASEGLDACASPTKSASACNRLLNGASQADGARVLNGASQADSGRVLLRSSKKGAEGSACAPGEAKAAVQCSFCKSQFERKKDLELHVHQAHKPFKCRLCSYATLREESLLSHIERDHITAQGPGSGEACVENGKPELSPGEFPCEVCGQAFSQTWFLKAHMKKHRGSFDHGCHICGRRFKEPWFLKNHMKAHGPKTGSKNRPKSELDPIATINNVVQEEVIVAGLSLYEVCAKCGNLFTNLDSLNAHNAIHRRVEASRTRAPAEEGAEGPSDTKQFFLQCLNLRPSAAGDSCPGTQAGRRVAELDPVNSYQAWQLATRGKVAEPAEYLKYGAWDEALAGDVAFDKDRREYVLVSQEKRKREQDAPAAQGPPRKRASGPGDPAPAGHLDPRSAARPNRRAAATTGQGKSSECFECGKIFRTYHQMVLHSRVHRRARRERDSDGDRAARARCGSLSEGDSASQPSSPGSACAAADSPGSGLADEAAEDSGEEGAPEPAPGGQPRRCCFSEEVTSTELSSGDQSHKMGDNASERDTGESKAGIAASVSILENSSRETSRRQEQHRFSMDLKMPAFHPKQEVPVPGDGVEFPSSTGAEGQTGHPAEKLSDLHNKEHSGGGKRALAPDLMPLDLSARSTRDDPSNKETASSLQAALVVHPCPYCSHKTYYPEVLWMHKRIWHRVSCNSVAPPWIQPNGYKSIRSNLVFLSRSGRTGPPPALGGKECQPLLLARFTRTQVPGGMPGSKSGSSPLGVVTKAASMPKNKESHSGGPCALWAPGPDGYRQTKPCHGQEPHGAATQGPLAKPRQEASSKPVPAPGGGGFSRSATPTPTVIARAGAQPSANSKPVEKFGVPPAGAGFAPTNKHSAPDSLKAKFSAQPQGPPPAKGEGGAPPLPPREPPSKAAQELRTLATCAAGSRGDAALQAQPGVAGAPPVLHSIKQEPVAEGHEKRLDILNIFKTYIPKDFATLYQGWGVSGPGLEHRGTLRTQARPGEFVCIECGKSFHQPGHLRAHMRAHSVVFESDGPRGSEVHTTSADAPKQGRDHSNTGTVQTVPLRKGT

[2] = biological target: T2, ZNF516, endogenous (human (endogenous in MCF-7 and MDA-MB-231)) (UniProt Q92618); assay: co-IP; endogenous proteins, whole-cell lysates of MCF-7 or MDA-MB-231, immunoprecipitation with antibodies against ZNF516 or against the complex components (IgG as control), immunoblotting; lysis buffer 50 mM Tris-HCl pH 7.5, 150 mM NaCl, 0.5% NP-40, 2 mM EDTA, 4 °C
T2 sequence: T1 sequence

[3] = biological target: T1, FLAG-tagged ZNF516 (Zinc-finger protein 516) (human); assay: co-IP; whole-cell lysates of HEK293T transfected with FLAG-ZNF516, immunoprecipitation with anti-FLAG, immunoblotting for endogenous partners; lysis buffer 50 mM Tris-HCl pH 7.5, 150 mM NaCl, 0.5% NP-40, 2 mM EDTA, 4 °C

Measured: binding

CtBP2 (C-terminal binding protein 2), endogenous (from UniProt P56545 1-445)
binds: all assays above

CoREST (corepressor of RE1 silencing transcription factor), endogenous (from UniProt Q9UKL0 1-485)
binds: all assays above
